Data as given in PubChem BioAssay AID1745847 (National Center for Advancing Translational Sciences (NCATS), 2022).
Hit rate of the full screen: of about 2,100 compounds, about 670 (32%) were called active. The inconclusive results got no clear call from the source; some entries with a clear call stand among them for comparison. The call rests on the fitted dose curve; in most records, active means well fitted inhibition curve with a large enough effect; inconclusive means small, poorly fitted or top-dose-only effect; inactive means no such curve, though single readings can be large or run the other way. Where the call is inconclusive, the potency comes from a doubtful curve fit.

assay: CMV-Luciferase Counterscreen for Inhibitors of ATXN expression; conditions: HEK-293 CMV-luciferase reporter, luminescence, 24 h; series mostly up to 57.5 µM; activity change, negative = inhibition: at the top concentration; further: nearly all actives have a fitted effect of over 55% in size
On the % scale 0 is the no-effect control and ±100 the full control effect; potency means the concentration at half of the fitted maximal effect; tags describe the fitted curve by direction and shape.

Row | SMILES | Potency | activity change, negative = inhibition
1 | O=C(c1ccco1)N(CCCN1CCOCC1)c1nc(-c2ccc(Cl)cc2)cs1 | inconclusive: 8.91 µM [inhibitor, single point] | 
2 | NS(=O)(=O)c1ccc(CCNC(=O)c2cc(-c3ccccn3)nc3ccc(Br)cc23)cc1 |  | inactive: -21.8%
3 | CC(C)C1Cc2c(sc3[nH]c(=S)n(Cc4ccccc4)c(=O)c23)CO1 (stereo not given) | inconclusive: 3.16 µM [inhibitor, full curve, poor fit] | 
4 | CCOC(=O)c1ccc(NC(=O)C2CCCN(S(=O)(=O)c3ccc(F)cc3)C2)cc1 (stereo not given) | inconclusive: 28.2 µM [inhibitor, partial curve] | 
5 | O=c1c2ccccc2sc2nc(CCl)nn12 |  | inactive: -24% [at 11.4 µM]
6 | CCN(CC)CCC(=O)Nc1cccc2c1C(=O)c1ccccc1C2=O |  | inactive: -4.68% [at 11.4 µM]
7 | NC(Cc1ccc(C(F)(F)F)cc1)c1csc(Nc2nccc(C(F)(F)F)n2)n1 (stereo not given) |  | inactive: -10.1% [at 11.4 µM]
8 | O=C(c1cccc(Cl)c1)c1nn(-c2ccccc2)c(=O)cc1C(F)(F)F | active: 25.1 µM | 
9 | Cc1cnc(NC(=O)CCCc2nc3ccccc3s2)s1 |  | inactive: 91.3%
10 | NC(Cc1ccc(C(F)(F)F)cc1)c1csc(Nc2ccc(C(=O)c3ccccc3)cc2)n1 (stereo not given) | inconclusive: 31.6 µM [inhibitor, single point] | 
11 | Cc1ccn2c(Nc3ccccc3)c(-c3ccccn3)nc2c1 | inconclusive: 1.12 µM [inhibitor, full curve, poor fit] | 
12 | CN(C)CCCNC(=O)/C=C/c1ccc(OCc2c(F)cccc2Cl)cc1 |  | inactive: -21.7%
13 | COc1ccc(N2CCN(C(=O)c3cc4c(C)nc5ccccc5c4o3)CC2)cc1 | active: 22.4 µM | 
14 | CSCC[C@H](NC(=O)OC(C)(C)C)C(=O)N/N=C/c1cccc2cccnc12 |  | inactive: -26.9%
15 | Cc1nc2cc(NC(=O)CSc3nc4c(C)cccc4cc3C#N)ccc2s1 |  | inactive: -19.4%
16 | CCN(CC)S(=O)(=O)c1ccc(N/N=C/c2ccc(O)cc2O)nc1 | active: 1.26 µM | 
17 | Cc1cc(NC(=O)/C=C/C(=O)N(c2ccccc2C)C(C(=O)NC2CCCC2)c2ccc(F)cc2)no1 (stereo not given) | inconclusive: 7.08 µM [inhibitor, single point] | 
18 | Cc1c([N+](=O)[O-])cc(C(=O)Nc2ccc(Cc3ccncc3)cc2)cc1[N+](=O)[O-] | inconclusive: 39.8 µM [inhibitor, single point] | 
19 | Cc1csc2ncnc(NC3CCN(Cc4ccccc4)CC3)c12 | inconclusive: 1.78 µM [inhibitor, full curve] | 
20 | CN(C)C(=O)CSc1nc(-c2ccccc2)nc2c1CCCC2 |  | inactive: -18.6%
